The record followed here is the supplement of paper PMC11181314.

The other results are listed elsewhere or left out. Single values of this set are uncertain.
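Further: stains mark DNA, RNA and nucleoli, ER, actin, Golgi, plasma membrane and mitochondria, read by high-content imaging, with DMSO controls at matching solvent concentration.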

The test system of this assay is U2OS. Nature of the assay: Cell Painting induction (percent of morphological features significantly changed vs DMSO); higher = stronger morphological change. Particulars: 10 µM; 20 h; run: confirmation repeat. On the procedure:
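Cell Painting assay in U2OS cells: compounds at 10 µM for 20 h, six dyes, 579 robust CellProfiler features as Z-scores vs DMSO median (MAD). Induction is the % of significantly changed features (active if ≥5%); relative cell count is in % of DMSO. The primary run holds DCM compounds preselected for induction ≥10%; the confirmation repeat defines active compounds (370 of 549). Replicate agreement is low, attributed to precipitation.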
`COc1ccc2c(c1)CCc1c(C(=O)NCc3ccc(Cl)cc3)noc1-2`: the “Cell Painting induction” value was active: 12.3%. On to `Cc1cccc(N2CCN(C(=O)c3ccc(CNc4c(N5CCC(C)CC5)c(=O)c4=O)cc3)CC2)c1C`, for which the “Cell Painting induction” value was inactive: 0.2%. In the case of `COc1cc(OC)c(OC)cc1CN1CCC(N2CCN(c3ccccc3)CC2)CC1` it was active: 18.3%. As for `COc1ccc(NC(=S)N/N=C/c2cccn2Cc2ccccc2F)cc1`, the “Cell Painting induction” value was active: 22.1%.

Regarding `CC(C)c1ccc(NC(=O)c2cc(S(=O)(=O)N3CCN(c4ccccc4)CC3)ccc2F)cc1`, the “Cell Painting induction” value is active: 13.6%. In the case of `CCOc1ccc(NC(=S)NCCN2CCN(Cc3ccccc3)CC2)cc1` it was active: 24%; in that of `CC(C)CCOc1cccc(C2c3c(oc4ccccc4c3=O)C(=O)N2CCCN2CCOCC2)c1` (configuration not stated), active: 13.5%.

As to `C=CCOC(=O)C1=C(C)N=C2SCCC(=O)N2C1/C=C/c1ccccc1OC` (configuration not stated), the “Cell Painting induction” value is active: 5.4%. `CCOc1ccc(N(CC)C(=O)c2nn(-c3ccc(OC)cc3)c(=O)c3c2c2ccccc2n3C)cc1`: the “Cell Painting induction” value was active: 37%. For `CCCN(CCC)CCCNC(=O)c1ccc2c(c1)N(CC)C(=O)c1ccccc1S2=O` (configuration not stated), the “Cell Painting induction” value is inactive: 2.2%. In the case of `CCOc1ccc(NC(=O)c2nnn(CC(=O)Nc3ccccc3OCC)c2N)cc1` it was active: 11.6%; in that of `Cc1ccccc1-c1nc(S(=O)(=O)c2ccccc2)c(NCCCN2CCOCC2)o1`, active: 17.4%; in that of `COC(=O)c1cccc(Oc2nc3c(c(=O)n(C)c(=O)n3C)n2Cc2ccc(C)cc2)c1`, inactive: 0%.

For the compound `O=C(NCc1ccc(F)cc1)c1cccc2c1C(=O)N(Cc1cccnc1)C2`, the “Cell Painting induction” value is inactive: 4%. As for `CN(CCCNC(=O)c1nn(C)c2c1CS(=O)(=O)c1ccccc1-2)Cc1ccccc1`, the figure is inactive: 2.2%. With `O=C(NCCN1CCC(Cc2ccccc2)CC1)C1CCN(S(=O)(=O)N2CCC3(CC2)OCCO3)CC1`, the “Cell Painting induction” value is active: 10.4%. In the case of `CC(C)(C)OC(=O)N1CCC(c2c(C(=O)NCC3CCN(C4CCCC4)C3)cnn2-c2ccccc2)CC1` (configuration not stated) it was active: 49.6%; in that of `CO/C(O)=C1\C(C)=Nc2ncnn2C1c1ccc(OC(=O)c2ccccc2)cc1` (configuration not stated), active: 20.6%; in that of `Cc1ccc(NC(=N)Nc2nc(O)cc(CSc3ccc(C)cc3)n2)cc1`, inactive: 0.9%. Take `CCN(CCCNC(=O)CN1C(=O)COc2ccc(S(=O)(=O)N3CCC(C)CC3)cc21)Cc1ccccc1`: the “Cell Painting induction” value was active: 39.7%. Take `O=C(c1noc2c1CCCCC2)N1CCN(C(c2ccccc2)c2ccccc2)CC1`: the “Cell Painting induction” value was inactive: 0%. As to `COc1cc(CNCCCN2CCOCC2)cc(Cl)c1OCC(=O)NC(C)(C)C`, the “Cell Painting induction” value was active: 25.4%.
